Source: the RNAGym collection of RNA variant scans (doi:10.1093/nar/gkz1192)
Read counts are not given, so values of variants with three or more changes are uncertain.

B1: CPEB3 Ribozyme (parent)
chain: UAACAGGGGGCCACAGCAGAAGCGUUCACGUCGCAGCCCCUGUCAGAUUCUGGUGAAUCUGCGAAUUCUGCUGUAUAUCUC

Variants of: B1
Experiment: self-cleavage, relative activity (ratio to wild type); higher = more cleavage; in vitro, sequencing
Procedure, shortened: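 Relative activity compares each variant's cleaved/total read fraction with that of the unmutated ribozyme. To get these fractions, barcoded CPEB3 ribozyme libraries from rounds of error-prone PCR were transcribed with T7 RNA polymerase for 5 hours at 37°C and then given 15 min of DNase I treatment before EDTA was added. The RNAs were reverse transcribed with template switching and sequenced on Illumina, and DNA sequencing linked barcodes to variants. A minimum of 5 reads applied, and three batches were averaged.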

Variant | self-cleavage
A28G A35G C59A | 0.25
A28G A35G C59G | 0.23
A28G A35G U41C | 0.63
A28G A35G U54A | 1.19
A28G A35G U69G | 0.7
A28G A35G U72C | 1.34
A28G A35U A57U | 0.12
A28G A35U A64G U67C | 0.24
A28G A35U C38U A47G C59G | 0.07
A28G A35U G46C U58G U60C | 0.09
A28G A35U G53A | 0.21
A28G A35U U54C U60C U72A | 0.15
A28G A35U U54C U80A | 0.15
A28G A35U U60C U72A | 0.09
A28G A35U U60G A64G C81U | 0.1
A28G A35U U78C | 0.24
A28G A45C U58A | 0.37
A28G A45G A47G U67G | 0.07
A28G A45G A47U U49C G70A A77U | 0.13
A28G A45G A56G | 0.18
A28G A45G A56G A75U | 0.19
A28G A45G A75G | 0.51
A28G A45G G73A | 0.71
A28G A45G U48C U51G A56G U66C | 0.16

Variant | self-cleavage
A28G A45G U54A G63C | 0.37
A28G A45G U54C | 0.42
A28G A45G U58C U69A U72C U76C A77U | 0.09
A28G A45G U72G U74A U76C | 0.22
A28G A45G U78C | 0.31
A28G A45G U80C | 0.58
A28G A45U C59A | 0.05
A28G A45U U48C G63A | 0.16
A28G A45U U49A C71A | 0.15
A28G A45U U51C A64G U80A | 0.06
A28G A45U U60C A64U | 0.12
A28G A45U U80A | 0.33
A28G A47G A77U | 0.78
A28G A47G G61A C71G U74A | 0.16
A28G A47G U48A A56U U66C U78C | 0.16
A28G A47G U49A U67A | 0.08
A28G A47G U51A | 0.58
A28G A47G U54A C62A U76C | 0.05
A28G A47G U60C | 0.12
A28G A47U A57G A64G U69C | 0.05
A28G A47U A64U | 0.29
A28G A47U U72C | 0.29
A28G A56G A64U U76A | 0.12
A28G A56G C68U | 0.26

Variant | self-cleavage
A28G A56G U60C U74A | 0.13
A28G A56G U67C C79U | 0.04
A28G A56G U69C U78C | 0.08
A28G A56G U74C | 0.8
A28G A56U C62G | 0.07
A28G A57C U80C | 0.25
A28G A57G U67C | 0.16
A28G A57U A77G | 0.2
A28G A57U U78C | 0.25
A28G A64G U67A U78C | 0.08
A28G A64G U67C U78C | 0.12
A28G A64G U78A | 0.37
A28G A64U A65G | 0.14
A28G A64U A77U | 0.1
A28G A65G U69C U72A | 0.12
A28G A75G U78C | 0.19
A28G C29A A35G U41A G52A | 0.3
A28G C29A C39U U49C | 0.07
A28G C29G A57C | 0.24
A28G C29G A64G | 0.42
A28G C29U A35G | 0.5
A28G C29U A35G U69A | 0.23
A28G C29U A64U A77U | 0.13
A28G C29U C39A G55U U69C A77U | 0.11

Variant | self-cleavage
A28G C29U U48C | 0.4
A28G C32A A35G U78C | 0.21
A28G C32A C38G A47G U48C A56G C81U | 0.21
A28G C32A G52A A75G | 0.14
A28G C32A U41A A45U G61A U78A | 0.09
A28G C32U U48C U51A U60C U67C C79U | 0.03
A28G C32U U49C U69A | 0.04
A28G C32U U66A | 0.12
A28G C34U A64G | 0.13
A28G C37G A64U | 0.21
A28G C37U A65C | 0.05
A28G C37U U74C | 0.76
A28G C38G U48C U76C | 0.04
A28G C38U A45U U49A | 0.06
A28G C38U U51C G52U U54C | 0.11
A28G C38U U54C C62G A64U | 0.1
A28G C38U U58G U66A | 0.12
A28G C39A A45U U60A A64G | 0.12
A28G C39A U51G | 0.24
A28G C39G U49C U58A U66C G70A | 0.06
A28G C39U A56G | 0.16
A28G C40U G53C A77C U78G | 0.19
A28G C40U G53C C68U U78G | 0.16
A28G C40U U41C G55A C81U | 0.44

Variant | self-cleavage
A28G C40U U51A A64U | 0.2
A28G C40U U54A A57G | 0.31
A28G C40U U54C U69C | 0.1
A28G C40U U58C C59A | 0.14
A28G C40U U58G | 0.17
A28G C44A A45C A64G U72C A77G | 0.05
A28G C44A C62U | 0.16
A28G C59A G70A | 0.13
A28G C59U U60A U69A | 0.11
A28G G30A A57G | 0.1
A28G G30A C38A U48C U74C | 0.18
A28G G30A G33U A45G U48C U54C U72C | 0.08
A28G G30A G53A | 0.1
A28G G30A U78C | 0.12
A28G G30U A45U C50A U60A A64C | 0.05
A28G G30U G70C | 0.13
A28G G33A U43A | 0.52
A28G G33A U43A U54C | 0.35
A28G G33A U48A A77U | 0.22
A28G G33A U66C | 0.52
A28G G33C U67C U78C | 0.09
A28G G33C U80C | 0.22
A28G G33U A35U U41C A64G | 0.06
A28G G33U A57G U76C A77G | 0.13

Variant | self-cleavage
A28G G36A U41A U43C U78A | 0.2
A28G G36A U43A A56G A57G | 0.06
A28G G36A U54A A77G | 0.16
A28G G36C U49A U69A | 0.11
A28G G42A A45U U48A U67C | 0.04
A28G G42A U72C | 0.18
A28G G42C U43C U67C | 0.15
A28G G42C U72C U78G | 0.29
A28G G46A A65G A75U U80A | 0.1
A28G G46A U54C | 0.08
A28G G46U A47G A57G U78C | 0.13
A28G G46U A47U U49C A56G A65U | 0.1
A28G G46U U58C | 0.08
A28G G46U U66C U69A | 0.04
A28G G52A G63U | 0.32
A28G G52A U54C U74C U78C | 1.06
A28G G52A U58A U67A | 0.13
A28G G52A U69C | 0.33
A28G G52C A56G U69C U80C | 0.19
A28G G52U A64G | 0.54
A28G G53A A64C U67C | 0.11
A28G G53C A77G C81U | 0.84
A28G G53C U69A | 0.16
A28G G61C U69C | 0.15

Variant | self-cleavage
A28G U31A A35U U74C | 0.09
A28G U31A A45G A56G A65G U72C | 0.04
A28G U31A A64G | 0.17
A28G U31A A64G U69C U74C | 0.11
A28G U31A C38U A56U | 0.19
A28G U31A G73A | 0.96
A28G U31A U49A U54A | 0.14
A28G U31A U49G U69A U74C | 0
A28G U31A U54C C68A U74C U78C | 0.02
A28G U31A U60A U76C A77G | 0.09
A28G U31A U60C U72A | 0.09
A28G U31C A35G A57U U78G | 0.61
A28G U31C A35U A57G U69C | 0.12
A28G U31C A57G | 0.39
A28G U31C A64U U66C A75G | 0.11
A28G U31C C37A | 0.1
A28G U31C C37U U41C C62U U76G | 0.07
A28G U31C C44U | 0.17
A28G U31C G42U | 0.12
A28G U31C U67A U80C | 0.1
A28G U31C U72A U80C | 0.72
A28G U31C U72C | 0.5
A28G U31G G70A | 0.3
